# Values joined by “and” are separate entries in the source; they are usually repeats but may differ in a detail not shown here. Equal values may be shown once. Some of the results follow. The protein was read in a cell extract, so binding may be indirect.
# Legend:
# Assay in all cases: pull-down
# [1] = target: LIG3 (Homo sapiens) (UniProt P49916); conditions: 150 mM NaCl, 50 mM Tris pH 8.0, 0.25% NP-40, 1 mM DTT, 4 C, 2 h, 100 ug nuclear extract, double strand, one strand shown
# [2] = target: MSH2 (Homo sapiens) (UniProt P43246); conditions: 150 mM NaCl, 50 mM Tris pH 8.0, 0.25% NP-40, 1 mM DTT, 4 C, 2 h, 100 ug nuclear extract, double strand, one strand shown
# Sequence of UniProt P43246 (P43246 whole entry): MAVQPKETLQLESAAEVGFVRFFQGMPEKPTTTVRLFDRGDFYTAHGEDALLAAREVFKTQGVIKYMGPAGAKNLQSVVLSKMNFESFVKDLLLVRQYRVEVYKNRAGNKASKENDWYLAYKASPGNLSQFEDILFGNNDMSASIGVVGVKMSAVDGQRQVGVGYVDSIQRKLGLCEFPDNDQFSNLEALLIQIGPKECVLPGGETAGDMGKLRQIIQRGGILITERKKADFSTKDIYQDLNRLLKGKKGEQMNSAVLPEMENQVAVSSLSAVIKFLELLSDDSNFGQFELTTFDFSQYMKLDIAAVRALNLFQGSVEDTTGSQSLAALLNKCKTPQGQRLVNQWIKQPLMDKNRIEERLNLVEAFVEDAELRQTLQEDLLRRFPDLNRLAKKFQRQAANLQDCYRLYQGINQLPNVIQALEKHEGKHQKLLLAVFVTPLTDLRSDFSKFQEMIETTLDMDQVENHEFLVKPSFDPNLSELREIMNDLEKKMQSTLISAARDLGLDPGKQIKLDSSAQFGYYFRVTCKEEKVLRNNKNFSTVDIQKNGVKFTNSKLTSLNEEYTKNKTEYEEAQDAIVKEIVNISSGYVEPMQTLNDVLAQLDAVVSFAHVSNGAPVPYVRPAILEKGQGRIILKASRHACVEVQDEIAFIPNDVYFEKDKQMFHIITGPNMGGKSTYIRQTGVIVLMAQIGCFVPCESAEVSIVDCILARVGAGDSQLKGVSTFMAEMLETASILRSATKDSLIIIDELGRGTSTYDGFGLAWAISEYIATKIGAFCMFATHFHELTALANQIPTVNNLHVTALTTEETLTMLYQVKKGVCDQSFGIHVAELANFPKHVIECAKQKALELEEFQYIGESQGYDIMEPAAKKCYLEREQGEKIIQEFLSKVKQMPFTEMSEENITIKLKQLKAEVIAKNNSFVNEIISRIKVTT
# [3] = target: MSH3 (Homo sapiens) (UniProt P20585); conditions: 150 mM NaCl, 50 mM Tris pH 8.0, 0.25% NP-40, 1 mM DTT, 4 C, 2 h, 100 ug nuclear extract, double strand, one strand shown
# Sequence of UniProt P20585 (P20585 whole entry): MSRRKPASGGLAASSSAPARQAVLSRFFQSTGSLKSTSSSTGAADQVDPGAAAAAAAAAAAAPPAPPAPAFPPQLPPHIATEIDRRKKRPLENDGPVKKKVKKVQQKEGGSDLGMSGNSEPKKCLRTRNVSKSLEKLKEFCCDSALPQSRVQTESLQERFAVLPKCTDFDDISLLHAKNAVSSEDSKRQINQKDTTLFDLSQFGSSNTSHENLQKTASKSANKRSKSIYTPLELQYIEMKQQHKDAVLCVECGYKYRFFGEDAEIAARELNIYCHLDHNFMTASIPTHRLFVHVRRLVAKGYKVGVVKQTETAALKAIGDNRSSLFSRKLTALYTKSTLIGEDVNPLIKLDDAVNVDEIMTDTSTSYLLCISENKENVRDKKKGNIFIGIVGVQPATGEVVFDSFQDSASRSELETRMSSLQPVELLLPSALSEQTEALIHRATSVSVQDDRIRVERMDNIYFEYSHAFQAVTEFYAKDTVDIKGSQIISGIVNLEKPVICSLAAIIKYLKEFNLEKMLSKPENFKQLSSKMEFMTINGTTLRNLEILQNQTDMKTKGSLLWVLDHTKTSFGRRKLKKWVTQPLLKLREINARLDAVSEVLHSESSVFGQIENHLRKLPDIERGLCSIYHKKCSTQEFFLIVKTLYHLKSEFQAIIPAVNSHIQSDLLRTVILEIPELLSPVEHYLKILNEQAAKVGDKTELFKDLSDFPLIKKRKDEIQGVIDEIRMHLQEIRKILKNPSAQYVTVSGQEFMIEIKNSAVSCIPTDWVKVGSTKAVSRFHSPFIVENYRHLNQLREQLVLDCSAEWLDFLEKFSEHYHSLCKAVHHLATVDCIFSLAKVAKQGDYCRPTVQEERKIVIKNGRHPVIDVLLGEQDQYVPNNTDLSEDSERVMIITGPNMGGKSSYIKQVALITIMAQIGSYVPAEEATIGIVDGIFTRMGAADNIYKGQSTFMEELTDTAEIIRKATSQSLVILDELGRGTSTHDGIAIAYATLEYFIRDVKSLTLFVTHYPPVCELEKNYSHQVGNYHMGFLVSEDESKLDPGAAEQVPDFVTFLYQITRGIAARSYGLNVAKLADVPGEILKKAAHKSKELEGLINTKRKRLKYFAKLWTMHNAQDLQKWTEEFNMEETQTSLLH
# [4] = target: PARP1 (Homo sapiens) (UniProt P09874); conditions: 150 mM NaCl, 50 mM Tris pH 8.0, 0.25% NP-40, 1 mM DTT, 4 C, 2 h, 100 ug nuclear extract, double strand, one strand shown
# Sequence of UniProt P09874 (P09874 whole entry): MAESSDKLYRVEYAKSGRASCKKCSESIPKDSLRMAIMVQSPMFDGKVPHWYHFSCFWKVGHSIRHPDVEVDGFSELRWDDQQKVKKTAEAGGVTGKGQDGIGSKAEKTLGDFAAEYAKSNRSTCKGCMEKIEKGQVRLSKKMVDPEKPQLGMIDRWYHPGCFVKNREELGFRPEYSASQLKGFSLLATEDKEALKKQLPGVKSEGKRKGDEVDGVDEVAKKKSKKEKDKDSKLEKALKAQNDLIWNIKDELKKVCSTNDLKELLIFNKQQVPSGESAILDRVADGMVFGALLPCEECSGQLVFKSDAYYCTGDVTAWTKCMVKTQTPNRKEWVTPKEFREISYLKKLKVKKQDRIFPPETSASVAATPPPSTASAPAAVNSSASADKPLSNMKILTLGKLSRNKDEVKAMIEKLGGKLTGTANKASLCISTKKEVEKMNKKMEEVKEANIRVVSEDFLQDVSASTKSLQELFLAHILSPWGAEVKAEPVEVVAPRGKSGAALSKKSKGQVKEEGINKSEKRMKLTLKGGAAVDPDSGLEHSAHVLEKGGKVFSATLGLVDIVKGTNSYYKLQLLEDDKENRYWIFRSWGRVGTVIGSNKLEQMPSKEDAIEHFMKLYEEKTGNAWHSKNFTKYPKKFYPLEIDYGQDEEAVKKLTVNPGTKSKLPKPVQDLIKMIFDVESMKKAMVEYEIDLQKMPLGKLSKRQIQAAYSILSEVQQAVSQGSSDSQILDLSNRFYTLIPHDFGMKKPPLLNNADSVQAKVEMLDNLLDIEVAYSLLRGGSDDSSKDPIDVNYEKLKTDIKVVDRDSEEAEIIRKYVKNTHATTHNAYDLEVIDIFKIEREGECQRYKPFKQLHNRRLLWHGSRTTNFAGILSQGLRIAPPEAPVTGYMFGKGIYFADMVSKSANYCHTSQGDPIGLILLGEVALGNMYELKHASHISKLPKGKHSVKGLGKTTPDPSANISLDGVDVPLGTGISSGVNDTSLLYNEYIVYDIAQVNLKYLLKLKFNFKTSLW
# [5] = target: KPNA2 (Homo sapiens) (UniProt P52292); conditions: 150 mM NaCl, 50 mM Tris pH 8.0, 0.25% NP-40, 1 mM DTT; 4 C, 2 h; 100 ug nuclear extract; double strand, one strand shown
# [6] = target: T1, MLXIP (UniProt Q9HAP2); conditions: 150 mM NaCl, 50 mM Tris pH 8.0, 0.25% NP-40, 1 mM DTT; 4 C, 2 h; 100 ug nuclear extract; double strand, one strand shown
# T1 sequence: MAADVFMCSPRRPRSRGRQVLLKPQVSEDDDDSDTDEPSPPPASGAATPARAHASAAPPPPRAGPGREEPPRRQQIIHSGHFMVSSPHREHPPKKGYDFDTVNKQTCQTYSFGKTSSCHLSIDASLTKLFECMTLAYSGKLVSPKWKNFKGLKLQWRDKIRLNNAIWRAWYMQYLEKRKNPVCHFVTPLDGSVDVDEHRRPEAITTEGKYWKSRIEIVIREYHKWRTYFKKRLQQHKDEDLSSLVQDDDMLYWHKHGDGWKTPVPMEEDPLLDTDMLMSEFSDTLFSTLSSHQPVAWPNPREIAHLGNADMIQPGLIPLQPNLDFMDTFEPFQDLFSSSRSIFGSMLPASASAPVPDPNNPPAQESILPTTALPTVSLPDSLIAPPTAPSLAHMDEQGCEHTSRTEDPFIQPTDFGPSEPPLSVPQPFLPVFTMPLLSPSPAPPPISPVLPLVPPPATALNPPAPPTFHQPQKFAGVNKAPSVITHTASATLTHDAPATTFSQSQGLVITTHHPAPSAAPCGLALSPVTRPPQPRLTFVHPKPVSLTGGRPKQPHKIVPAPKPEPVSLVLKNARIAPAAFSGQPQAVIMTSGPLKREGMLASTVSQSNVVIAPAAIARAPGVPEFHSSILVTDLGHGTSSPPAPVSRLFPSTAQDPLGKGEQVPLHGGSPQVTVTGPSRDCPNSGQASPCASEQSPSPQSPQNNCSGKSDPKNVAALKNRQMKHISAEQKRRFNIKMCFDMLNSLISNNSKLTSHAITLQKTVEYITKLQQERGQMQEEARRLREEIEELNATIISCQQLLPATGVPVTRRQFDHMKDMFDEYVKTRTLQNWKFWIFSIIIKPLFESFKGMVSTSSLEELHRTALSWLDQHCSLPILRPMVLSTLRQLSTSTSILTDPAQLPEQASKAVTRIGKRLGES
# [7] = target: T2, PCGF1 (Homo sapiens) (UniProt Q9BSM1); conditions: 150 mM NaCl, 50 mM Tris pH 8.0, 0.25% NP-40, 1 mM DTT; 4 C, 2 h; 100 ug nuclear extract; double strand, one strand shown
# T2 sequence: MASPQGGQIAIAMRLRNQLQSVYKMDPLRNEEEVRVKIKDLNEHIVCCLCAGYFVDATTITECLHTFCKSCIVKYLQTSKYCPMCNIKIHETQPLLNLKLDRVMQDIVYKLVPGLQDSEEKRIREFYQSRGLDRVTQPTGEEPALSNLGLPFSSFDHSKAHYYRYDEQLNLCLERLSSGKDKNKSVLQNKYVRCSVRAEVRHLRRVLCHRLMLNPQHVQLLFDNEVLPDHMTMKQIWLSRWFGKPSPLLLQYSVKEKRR
# [8] = target: KMT2A (Homo sapiens) (UniProt Q03164); conditions: 150 mM NaCl, 50 mM Tris pH 8.0, 0.25% NP-40, 1 mM DTT; 4 C, 2 h; 100 ug nuclear extract; double strand, one strand shown
# [9] = target: L3MBTL3 (Homo sapiens) (UniProt Q96JM7); conditions: 150 mM NaCl, 50 mM Tris pH 8.0, 0.25% NP-40, 1 mM DTT; 4 C, 2 h; 100 ug nuclear extract; double strand, one strand shown
# Sequence of UniProt Q96JM7 (Q96JM7 whole entry): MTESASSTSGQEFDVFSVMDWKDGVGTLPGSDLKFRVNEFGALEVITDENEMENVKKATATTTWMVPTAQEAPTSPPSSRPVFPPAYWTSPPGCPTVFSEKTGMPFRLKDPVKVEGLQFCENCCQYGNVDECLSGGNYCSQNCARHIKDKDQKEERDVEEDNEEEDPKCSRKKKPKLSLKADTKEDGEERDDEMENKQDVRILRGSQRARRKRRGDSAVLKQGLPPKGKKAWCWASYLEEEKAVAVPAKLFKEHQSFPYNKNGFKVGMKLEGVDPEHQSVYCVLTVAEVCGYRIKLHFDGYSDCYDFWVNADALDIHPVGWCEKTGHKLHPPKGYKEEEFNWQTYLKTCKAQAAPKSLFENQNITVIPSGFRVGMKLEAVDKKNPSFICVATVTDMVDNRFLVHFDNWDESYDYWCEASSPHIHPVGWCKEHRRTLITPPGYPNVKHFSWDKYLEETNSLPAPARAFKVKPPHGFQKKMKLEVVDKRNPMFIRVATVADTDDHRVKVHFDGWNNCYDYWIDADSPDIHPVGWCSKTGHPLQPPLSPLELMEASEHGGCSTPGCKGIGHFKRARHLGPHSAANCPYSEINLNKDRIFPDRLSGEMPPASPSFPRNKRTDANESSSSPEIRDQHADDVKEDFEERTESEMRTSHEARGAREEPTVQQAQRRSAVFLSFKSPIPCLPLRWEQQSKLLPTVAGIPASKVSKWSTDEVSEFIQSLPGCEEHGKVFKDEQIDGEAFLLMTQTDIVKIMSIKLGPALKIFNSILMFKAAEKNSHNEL
# [10] = target: T3, MYBBP1A (Homo sapiens) (UniProt Q9BQG0); conditions: 150 mM NaCl, 50 mM Tris pH 8.0, 0.25% NP-40, 1 mM DTT; 4 C, 2 h; 100 ug nuclear extract; double strand, one strand shown
# T3 sequence: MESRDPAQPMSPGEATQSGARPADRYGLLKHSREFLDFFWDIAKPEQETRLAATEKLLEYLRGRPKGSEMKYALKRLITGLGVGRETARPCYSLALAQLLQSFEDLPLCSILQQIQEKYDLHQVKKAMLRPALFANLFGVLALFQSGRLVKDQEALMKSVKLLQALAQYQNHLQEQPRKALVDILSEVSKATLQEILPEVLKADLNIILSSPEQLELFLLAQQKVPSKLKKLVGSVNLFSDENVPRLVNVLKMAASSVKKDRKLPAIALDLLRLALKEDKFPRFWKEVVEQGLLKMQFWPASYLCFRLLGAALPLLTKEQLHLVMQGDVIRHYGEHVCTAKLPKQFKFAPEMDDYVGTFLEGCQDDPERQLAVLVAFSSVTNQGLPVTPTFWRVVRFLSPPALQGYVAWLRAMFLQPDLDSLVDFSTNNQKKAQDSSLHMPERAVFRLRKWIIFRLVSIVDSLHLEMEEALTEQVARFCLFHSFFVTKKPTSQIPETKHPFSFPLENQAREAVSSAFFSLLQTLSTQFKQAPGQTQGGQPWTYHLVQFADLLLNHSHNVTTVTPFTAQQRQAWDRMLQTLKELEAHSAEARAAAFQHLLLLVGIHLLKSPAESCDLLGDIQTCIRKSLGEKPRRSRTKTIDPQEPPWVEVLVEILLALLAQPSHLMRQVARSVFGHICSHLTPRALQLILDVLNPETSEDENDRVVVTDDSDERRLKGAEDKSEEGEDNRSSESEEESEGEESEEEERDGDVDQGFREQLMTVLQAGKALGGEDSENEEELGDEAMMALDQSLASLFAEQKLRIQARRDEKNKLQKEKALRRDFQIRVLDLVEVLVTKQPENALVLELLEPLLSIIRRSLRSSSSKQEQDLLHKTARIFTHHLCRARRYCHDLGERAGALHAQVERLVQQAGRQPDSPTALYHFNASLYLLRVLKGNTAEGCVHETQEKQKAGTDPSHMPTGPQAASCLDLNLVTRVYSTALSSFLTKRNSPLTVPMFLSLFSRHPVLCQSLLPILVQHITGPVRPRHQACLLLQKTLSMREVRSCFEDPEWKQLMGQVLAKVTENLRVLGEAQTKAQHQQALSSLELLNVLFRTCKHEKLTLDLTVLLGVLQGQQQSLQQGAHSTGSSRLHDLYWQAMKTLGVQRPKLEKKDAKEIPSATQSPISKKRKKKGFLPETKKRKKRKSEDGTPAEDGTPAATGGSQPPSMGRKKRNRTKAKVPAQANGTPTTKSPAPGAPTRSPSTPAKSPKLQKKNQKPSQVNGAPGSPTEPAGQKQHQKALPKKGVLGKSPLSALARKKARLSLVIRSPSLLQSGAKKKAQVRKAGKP
# [11] = 5mC at 15,17 (strand 1), 5mC at 14,16 (strand 2)
# Sequence of UniProt P49916 (P49916 whole entry): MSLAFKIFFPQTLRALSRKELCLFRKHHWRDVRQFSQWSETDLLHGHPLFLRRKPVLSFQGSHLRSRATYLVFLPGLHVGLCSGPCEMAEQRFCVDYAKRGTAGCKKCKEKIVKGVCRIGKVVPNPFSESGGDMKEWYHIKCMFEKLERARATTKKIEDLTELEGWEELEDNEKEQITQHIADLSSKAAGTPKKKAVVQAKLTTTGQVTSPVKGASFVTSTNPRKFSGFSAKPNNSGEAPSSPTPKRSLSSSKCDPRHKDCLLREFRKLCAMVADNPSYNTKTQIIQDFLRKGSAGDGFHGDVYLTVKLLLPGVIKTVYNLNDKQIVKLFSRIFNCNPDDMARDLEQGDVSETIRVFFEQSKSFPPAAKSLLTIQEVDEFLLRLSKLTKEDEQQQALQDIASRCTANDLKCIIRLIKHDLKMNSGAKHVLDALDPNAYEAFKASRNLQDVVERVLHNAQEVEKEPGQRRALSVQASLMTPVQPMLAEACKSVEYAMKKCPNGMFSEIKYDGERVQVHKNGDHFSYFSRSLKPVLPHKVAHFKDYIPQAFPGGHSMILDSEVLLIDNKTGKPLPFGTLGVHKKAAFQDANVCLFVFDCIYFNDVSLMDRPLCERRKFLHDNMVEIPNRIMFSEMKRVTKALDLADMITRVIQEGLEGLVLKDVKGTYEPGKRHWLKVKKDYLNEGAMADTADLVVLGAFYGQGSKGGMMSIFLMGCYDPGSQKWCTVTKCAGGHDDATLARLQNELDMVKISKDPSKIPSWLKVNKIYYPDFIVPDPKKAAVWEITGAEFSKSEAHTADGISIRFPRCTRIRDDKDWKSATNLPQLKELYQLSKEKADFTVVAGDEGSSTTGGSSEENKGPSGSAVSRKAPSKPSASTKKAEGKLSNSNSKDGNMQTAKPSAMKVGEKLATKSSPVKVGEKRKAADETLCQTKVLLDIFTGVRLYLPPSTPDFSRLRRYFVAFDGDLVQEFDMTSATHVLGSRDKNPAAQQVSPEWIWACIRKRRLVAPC
sequence,measurement,setting,value
GCCGCCGCCCTTCTCGCGAGACTGCCGGGCC [methylated CGCG bait],half-maximal binding,[1]; [11],120 nM
same,half-maximal binding,[2]; [11],123 nM
same,half-maximal binding,[3]; [11],141 nM
same,half-maximal binding,[4]; [11],43 nM
GAGAGCCCCGCCCCCTGGCT [SP/KLF bait],half-maximal binding,[1],524 nM
same,half-maximal binding,[4],137 nM
GCCGCCGCCCTCCCACGCGCTGCCGGGCC [BEND3 bait],half-maximal binding,[5],74.7 nM
same,half-maximal binding,[1],147 nM
same,half-maximal binding,[6],244 nM
same,half-maximal binding,[2],122 nM
same,half-maximal binding,[3],139 nM
same,half-maximal binding,[4],117 nM
same,half-maximal binding,[7],438 nM
GAGAGAAAATAAAACTGGCT [SP/KLF negative control bait],half-maximal binding,[1],500 nM
same,half-maximal binding,[4],126 nM
GCCGCCGCCCTTCTCGCGAGACTGCCGGGCC [CGCG bait],half-maximal binding,[8],221 nM
same,half-maximal binding,[9],356 nM
same,half-maximal binding,[1],374 nM and 122 nM
same,half-maximal binding,[2],161 nM
same,half-maximal binding,[3],167 nM and 299 nM
same,half-maximal binding,[10],388 nM
same,half-maximal binding,[4],401 nM and 43.8 nM
same,half-maximal binding,[7],63.7 nM

# — article PMC10407929
